Measurements as given in PubChem BioAssay AID686979 (National Center for Advancing Translational Sciences (NCATS), 2013).
Values joined by “and” are separate entries in the source; they are usually repeats but may differ in a detail not shown here. Equal entries are not always repeated. Out of some 420,000 compounds screened, about 50,000 (12%) were called active. The shares of active, inactive and inconclusive entries below differ from those in the screen. Calls follow the shape of the dose curve; as a rule, active = well fitted inhibition curve with a large enough effect; inconclusive = small, poorly fitted or top-dose-only effect; inactive = flat fitted curve, though single readings scatter. A potency beside an inconclusive call is a rough fit, not a confirmed value.

Assay: qHTS for Inhibitors of human tyrosyl-DNA phosphodiesterase 1 (TDP1): qHTS in cells in presence of CPT; also: nearly all actives have a fitted effect of over 55% in size
Details: chicken DT40 Tdp1-/-;hTDP1 cells + 20 nM CPT, ATP luminescence, 48 h; activity change, negative = growth inhibition: at 46.2 µM (top of the series)
In short: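 Chicken DT40 Tdp1-/- cells stably complemented with human TDP1 were seeded at 400 cells/well in medium containing 20 nM camptothecin, exposed to pin-transferred compounds, and grown at 37 °C for at least 48 hr. Viability was read as ATP luminescence.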
% is scaled to controls: 0 for no effect and ±100 for the full control effect; potency is read from the fitted curve at half-maximal effect; tags tell the direction and shape of the fitted curve.

Row | SMILES | activity change, negative = growth inhibition | Potency
1 | Cc1cc(=O)n2ccsc2n1 | inactive: -12.2% | 
2 | OCc1ccccc1-c1nc(NCc2ccccc2)nc2ccsc12 |  | inconclusive: 18.4 µM [inhibitor, single point]
3 | Cc1cccc(NC(=S)N2CCCCCC2)c1C |  | inconclusive: 25.9 µM [inhibitor, single point]
4 | COc1ccccc1CNC(=O)CCC1N=C2c3ccccc3N=C(SCC(=O)Nc3ccc(N(C)C)cc3)N2C1=O (stereo not given) |  | inconclusive: 5.17 µM [inhibitor, single point]
5 | Cn1cccc1/C=C1/SC(=O)N(CC(=O)N2CCCC2)C1=O | inactive: 11.2% | 
6 | N=c1oc2cc(O)ccc2cc1C(=O)Nc1ccc(F)cc1 |  | inconclusive: 25.9 µM [inhibitor, single point]
7 | COc1ccc(S(=O)(=O)N2CCCN(CC(=O)Nc3ccc(OC)cc3OC)CC2)cc1 |  | inconclusive: 25.9 µM [inhibitor, single point]
8 | CCOc1ccc(C(=O)NCC(=O)Nc2cc(C)ccn2)cc1OCC | inactive: 2.36% | 
9 | CCCc1nnc2n1N=C(c1ccc([N+](=O)[O-])cc1)CS2 | inactive: 2.18% | 
10 | Cc1cccc(OCC(=O)Nc2cc(-c3ccccc3F)nn2-c2ccccc2)c1 | inconclusive: -32.7% [inhibitor] | 
11 | O=C(C[C@H]1C[C@H](C(=O)N2CCOCC2)[C@@]2(CCC3CCCC3)c3[nH]c4cc(-c5ccco5)ccc4c3CCN2C1=O)NCC12CC3CC(CC(C3)C1)C2 |  | active: 14.6 µM
12 | O=c1[nH]c2cc3c(cc2cc1CN(Cc1nnnn1C1CCCC1)C1CCCC1)OCCO3 |  | active: 16.4 µM
13 | N/C(=N\c1nc2ccccc2o1)NC(=O)c1cccc(Cl)c1 |  | inconclusive: 10.3 µM [inhibitor, partial curve]
14 | OCC[C@@H]1C[C@H](O)[C@@H](O)[C@@]2(CCc3ccccc3O2)O1 | inactive: 5.94% | 
15 | Cc1ccc(C(=O)NC(=S)c2c(C)cc3ccccn23)cc1 |  | inconclusive: 25.9 µM [inhibitor, single point]
16 | O=c1oc2ccccc2nc1/C=C(\O)c1ccc(Br)cc1 |  | inconclusive: 16.4 µM [inhibitor, single point]
17 | COc1ccc(/C=N/NC(=O)c2nnn(-c3nonc3N)c2C)cc1OC |  | inconclusive: 25.9 µM [inhibitor, single point]
18 | COC(=O)c1cc2occc2n1CC(=O)Nc1ccc(OC)c(OC)c1 | inactive: -3.22% | 
19 | CN(CC(=O)Nc1cccc(F)c1)CC(=O)Nc1ccccc1-c1ccccc1 |  | inconclusive: 14.6 µM [inhibitor, single point]
20 | COc1ccc(OC)c2sc(N3CCN(C(=O)CCS(=O)(=O)c4ccc(F)cc4)CC3)nc12 |  | active: 18.4 µM
21 | COc1cc(NC(=O)N2CCC(CN3CCOCC3)CC2)cc(OC)c1OC | inactive: -19.8% | 
22 | N#Cc1ccc(Oc2nc(C(N)=O)cc(-c3ccccc3)n2)cc1 | inactive: -11.4% | 
23 | O=C(CN1CCN(Cc2ccc(Cl)cc2)CC1)N/N=C/c1ccccc1F |  | inconclusive: 18.4 µM [inhibitor, single point]

Row | SMILES | activity change, negative = growth inhibition | Potency
24 | COc1ccccc1Cc1c(-c2ccccc2)nc2ccc(Br)cn12 |  | active: 14.6 µM
25 | CCOC(=O)N1CCN(C(=O)c2cc(COc3ccc4ncccc4c3)on2)CC1 |  | active: 6.51 µM
26 | Nc1ccc2c(c1)OC1(CCCCC1)O2 |  | inconclusive: 20.6 µM [inhibitor, partial curve]
27 | CC(C)c1ccc(Nc2ncnc3onc(-c4ccc(F)cc4)c23)cc1 |  | active: 18.4 µM
28 | Cc1ccc(-c2cn(-c3ccc(SC(F)F)cc3)c3[n+]2CCC3)cc1 |  | active: 0.651 µM
29 | CCCCN1CC(O)=C(c2nc3ccccc3[nH]2)C1=N |  | inconclusive: 32.6 µM [inhibitor, single point]
30 | COc1ccc(N(CC(=O)Nc2cc(OC)cc(OC)c2)S(=O)(=O)c2c(C)n[nH]c2C)cc1 | inactive: -29.6% | 
31 | CCOc1ccc(S(=O)(=O)NCCC(=O)OCC(=O)c2ccc(NC(C)=O)cc2)cc1 | inactive: -2.63% | 
32 | O=C(NC1CCCCC1)C(c1ccc(C(F)(F)F)cc1)n1c(=O)c(-c2ccco2)nc2ccccc21 (stereo not given) |  | active: 1.64 µM
33 | COc1ccc(NC(=O)c2cc3c(=O)n(C)c4ccccc4c3n2C)cc1OC |  | inconclusive: 29.1 µM [inhibitor, partial curve, poor fit]
34 | COCCNc1nc2c(c(=O)n(Cc3cccc(Br)c3)c(=O)n2C)n1C |  | inconclusive: 25.9 µM [inhibitor, single point] and inconclusive: 32.6 µM [inhibitor, single point]
35 | CCCCCCCCN1CC(Cc2cc3ccccc3c3ccccc23)N(c2ccccc2)c2ccccc2C1=O (stereo not given) |  | inconclusive: 29.1 µM [inhibitor, single point]
36 | COc1cccc(/C=N/Nc2ccnc(=O)[nH]2)c1O |  | active: 0.0231 µM
37 | Cc1nc2nc(SCC(=O)NC3CCCCC3)nn2c(C)c1Cc1ccccc1Cl |  | inconclusive: 25.9 µM [inhibitor, single point]
38 | CC(=O)N1Cc2cc(C(=O)NCC(F)(F)F)nc(-c3cccc(-c4cccnc4)c3)c2[C@@H]1CCO |  | active: 6.51 µM
39 | CCOc1cc(/C=C(\C#N)C(=O)Nc2cccc(C(=O)O)c2)ccc1OCc1ccc(Br)cc1 |  | inconclusive: 29.1 µM [inhibitor, single point]
40 | C=CCn1c(=O)/c(=C\c2ccsc2)s/c1=C(/C#N)C(=O)NCCN1CCOCC1 |  | inconclusive: 32.6 µM [inhibitor, single point]
41 | Cc1cc2cc(CNC(=O)c3ccc(S(=O)(=O)N4CCCC4)cc3)ccc2n1C |  | inconclusive: 18.4 µM [inhibitor, single point]
42 | CCCCn1nc(NC(=O)c2cccc(Cl)c2)c2cc3cccc(C)c3nc21 |  | inconclusive: 29.1 µM [inhibitor, single point]
43 | Cc1oc(-c2cccc(Cl)c2)nc1CN1CCCC(C(=O)NC(C)c2ccc3c(c2)OCCO3)C1 (stereo not given) |  | active: 20.6 µM
44 | COc1ccccc1CNC(=O)C1CC(=O)N(c2ccc(C)c(C)c2)C1 (stereo not given) | inactive: 1.08% | 
45 | Cc1ccc(C)c(NC(=O)/C(C#N)=C/c2cn(CC(=O)NCc3ccco3)c3ccccc23)c1 |  | active: 16.4 µM
